The whole screen tested about 340,000 compounds, of which about 6,900 (2%) were called active. No stated cut-off is given here; in the data, active means inhibition above about 30%; inactive means below that, where a call was filed. This is a selection; strong and weak results do not stand in their true shares. The source gives no active or inactive call for entries shown without one.
Each compound was assayed against D(2) dopamine receptor (Homo sapiens) (UniProt P14416) (assay: HTS Assay for Allosteric Antagonists of the Human D2 Dopamine Receptor: Primary Screen for Antagonists). Conditions: HEK293 TREx D2 cells, calcium flux, dopamine EC80; at 10 µM; stronger effect = higher value.
UniProt P14416, sequence (P14416 whole entry, looked up): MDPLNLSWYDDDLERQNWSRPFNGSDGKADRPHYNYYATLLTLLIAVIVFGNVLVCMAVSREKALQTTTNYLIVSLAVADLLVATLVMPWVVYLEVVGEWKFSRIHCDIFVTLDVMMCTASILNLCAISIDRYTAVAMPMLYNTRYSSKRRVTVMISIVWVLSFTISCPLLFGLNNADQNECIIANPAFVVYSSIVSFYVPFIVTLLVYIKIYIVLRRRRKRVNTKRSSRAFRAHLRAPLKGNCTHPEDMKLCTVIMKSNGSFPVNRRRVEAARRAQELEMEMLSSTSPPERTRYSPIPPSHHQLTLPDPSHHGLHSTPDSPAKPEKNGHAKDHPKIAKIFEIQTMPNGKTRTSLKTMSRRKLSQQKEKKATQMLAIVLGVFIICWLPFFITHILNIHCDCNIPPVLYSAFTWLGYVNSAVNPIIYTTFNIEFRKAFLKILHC
Outline: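 Calcium flux kinetic readout in an inducible HEK293 TREx D2 line plated overnight at 30 C. After 180 s compound exposure, an EC80 dopamine challenge follows with another 180 s kinetic read to detect antagonism.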
Further: 0% is about no effect.

| Structure (SMILES) | inhibition |
| --- | --- |
| COc1ccc(CCC(=O)NCc2nc3cccnc3n2Cc2ccc(F)cc2)cc1 | -10.4% |
| CN(CC(=O)Nc1ccccc1F)S(=O)(=O)c1ccc2c(c1)c(=O)n(C)c(=O)n2C | -4.36% |
| CC1CCN(S(=O)(=O)c2ccc3c(c2)c(=O)c(C(=O)NC(C)c2ccccc2)cn3C)CC1 (stereo not drawn) | -3.24% |
| Cc1ccc(-c2nnc(Nc3cccc(O)c3)c3ccccc23)cc1S(=O)(=O)NCC1CCCO1 (stereo not drawn) | -2.32% |
| Cc1ccc(Cl)cc1N1CCN(C(=O)c2ccc3c(c2)CCN3S(=O)(=O)c2ccccc2)CC1 | 1.62% |
| Cc1c(Cl)cccc1NC(=O)C1CCCN(c2ncnc3onc(C)c23)C1 (stereo not drawn) | -1.25% |
| CCCCOc1ccc(NC2=NC3(CCCCC3)N=C(N)N2)cc1 | active: 35.5% |
| Cc1oc2ccc(O)c(CN3CCCC3)c2c1C(=O)Nc1ccc(C(C)C)cc1 | 8.71% |
| C#CCOc1ccc(-c2nnc(Nc3ccc(NC(C)=O)cc3)c3ccccc23)cc1 | -8% |
| CCc1cc2ccc(OC)cc2nc1SCC(=O)NNC(C)=O | active: 57.4% |
| Cc1ccc(Cl)cc1N1CCN(C(=O)c2c(C)oc3ncnc(N4CCCCC4)c23)CC1 | 7.6% |
| CCCCOc1cccc(C(=O)Nc2cc(NC(=O)c3ccco3)ccc2OC)c1 | -1.5% |
| CCc1ccc(CN2CCc3nc(N4CCN(c5ccccc5F)CC4)ncc3C2)cc1 | 8.4% |
| CCc1cc(C(=O)Nc2sc(C)c(CC)c2C#N)no1 | 0.83% |
| CC(c1ccccc1)n1cc2c(c1-c1ccccc1Br)c(=O)n(C)c(=O)n2C (stereo not drawn) | 11.7% |
| COc1ccc(-c2cnc(C)o2)cc1S(=O)(=O)Nc1c(C)cc(C)cc1C | -7.95% |
| CCc1ccc(C2=C(C)C(N3CCC(C(=O)NCc4ccccc4)CC3)=NS2(=O)=O)cc1 | 7.23% |
| Cc1ccc2c(c1)-c1c(cnc3cc(-c4ccc(F)cc4)nn13)CO2 | 4.38% |
| Cc1ccc(CNC(=O)c2c(O)nc3cc(C)ccn3c2=O)cc1 | 17.4% |
| COc1cccc(NC(=O)CCc2c(C)nc3nc(CNC(=O)c4cccc(F)c4)nn3c2C)c1 | -5.27% |
| CC(=O)c1ccc(NC(=O)c2noc3c2CSc2ccccc2-3)cc1 | 16.7% |
| COc1ccc(CCNC(=O)c2cnn(-c3cccc(C)c3)c2C2CCN(C(=O)OC(C)(C)C)CC2)cc1OC | 9.76% |
| COc1cccc2c1ncc1c(-c3ccc(C)cc3)nn(-c3ccc(F)cc3)c12 | -7.79% |
| Cc1cccc(-c2nnn3c2nc(NCc2ccc4c(c2)OCO4)c2ccccc23)c1 | -15.6% |

| Structure (SMILES) | inhibition |
| --- | --- |
| Cc1ccc(S(=O)(=O)Nc2cc3c(cc2NCc2ccccc2)n(C)c(=O)n3C)cc1 | 14.2% |
| O=C(Cn1c(=O)nc(-c2ccccc2)c2cc(Cl)ccc21)N1CCN(c2ccccc2F)CC1 | 9.37% |
| Cc1cc(C)nc(N(C#N)Cc2ccccc2C)n1 | active: 49.8% |
| CCOC(=O)c1sc2ccccc2c1S(=O)(=O)N1CCN(c2cccc(C)c2)C(C)C1 (stereo not drawn) | 17.9% |
| COc1ccc2c(c1)CC(C(=O)NCCCN1CCN(c3cccc(Cl)c3)CC1)CO2 (stereo not drawn) | 1.41% |
| Cc1ccc(/C=C\c2nccc3c2[nH]c2ccccc23)cc1 | active: 44.3% |
| Cc1ccc(CC(=O)NCc2ccc(Cl)cc2)cc1 | active: 52.6% |
| CSc1ncc(C(=O)N2CCN(c3cccc(Cl)c3)CC2)c(C)n1 | -14.5% |
| O=C(CCCn1c(=O)c2cccn2c2cccnc21)NCc1ccccc1Br | 8.88% |
| O=C(CC1C(=O)N(c2ccccc2)C(=O)N1CCc1cccs1)Nc1ccc(F)cc1 (stereo not drawn) | -13.4% |
| CCOc1ccc(CCNC(=O)Cn2nnc(-c3ccccc3Cl)n2)cc1OCC | -0.151% |
| Cc1ccc(CNc2nc(-c3ccco3)nn2S(=O)(=O)c2ccc3ccccc3c2)cc1 | -4.89% |
| O=C(CSc1ncc(-c2ccccc2)[nH]1)Nc1ccc(Cl)cc1 | 21.4% |
| Cc1cccc(-n2ncc(C(=O)N3CCN(c4ccc(C)cc4C)CC3)c2C2CCN(C(=O)OC(C)(C)C)CC2)c1 | 4.18% |
| Cc1cc(N2CCN(C)CC2)nc2ccc(NC(=O)Nc3cccc(Cl)c3)cc12 | -15.6% |
| Cc1cn(C)c(CC(=O)NCc2ccccc2)c1C(=O)O | -3.41% |
| Cc1ccsc1CN(C(=O)c1oc2ccc(Br)cc2c1C)C1CCS(=O)(=O)C1 (stereo not drawn) | 4.04% |
| CCN1c2ccccc2-c2nc(SCC(=O)NCc3ccc(Cl)cc3)ncc2S1(=O)=O | 7.9% |
| CCOc1ccc(C2c3c(oc4ccc(C)cc4c3=O)C(=O)N2CCCN2CCOCC2)cc1 (stereo not drawn) | -16.9% |
| CCOc1ccc(Nc2c(S(=O)(=O)c3ccc(Cl)cc3)cnc3ccc(OCC)cc23)cc1 | -0.204% |
| Cc1ccccc1CNC(=O)c1oc2c(c1C)-c1[nH]ncc1CC2 | -16.7% |
| Cc1ccc2nc(Cl)c3cc(C(=O)N4CCCCC4C)sc3c2c1 (stereo not drawn) | -4.63% |
| Cc1ccccc1Nc1nn2c(=O)c3ccc(C(=O)NCCc4ccc(Cl)cc4)cc3nc2s1 | -0.755% |
| COc1ccc(Cl)cc1NC(=O)CN1C(=O)C(C)(C)c2cc(S(=O)(=O)N3CCCCC3)ccc21 | 4.22% |

From PubChem BioAssay AID485344 (National Center for Advancing Translational Sciences (NCATS), 2010)
